Laboratory results taken from the supplement of paper PMC12355420.
Where a name gives a salt, the structure may show the parent alone. The list shows a part of the results. Rule as the data show it: active = 0.5 or less and inactive = the rest. Single values are uncertain, as repeats are few or missing.

How the values were obtained:
Settings in all cases: 50 µM; 24 h
[1] = system: HeLa VPS33A reporter cells; assay: relative cell viability (CellMask signal) vs DMSO (fraction of DMSO); higher = less cytotoxic;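 also: primary screen of an FDA-approved drug library in HeLa reporter cells in 96-well format, CellMask signal normalized to DMSO-treated wells set as 1, under 0.5 deemed highly cytotoxic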
[2] = system: HeLa VPS33A R498W KI + HA-SDC1-FLAG; assay: relative GAG core protein HA-SDC1 amount per cell number vs DMSO (fraction of DMSO); higher = more SDC1 (GAG core protein);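 also: HA-SDC1 level read out by In-Cell Western staining with an anti-HA antibody against the N-terminal tag, screening FDA-approved library drugs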
[3] = system: HeLa VPS33A KO + NLuc-VPS33A R498W; assay: relative mutant VPS33A R498W amount (NanoLuc luminescence) vs DMSO (fraction of DMSO); HeLa model of a glycosaminoglycan (GAG) storage disease; KI is knock-in and KO knock-out; SDC1 is syndecan 1; higher = higher mutant VPS33A level;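 also: screen of an FDA-approved drug library, NanoLuc luminescence read after lysing the treated cells, taken as a measure of mutant VPS33A protein stability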

Row | Structure (SMILES) | relative cell viability [1] | relative GAG core protein HA-SDC1 amount per cell number [2] | relative mutant VPS33A R498W amount [3]
1 | CSc1nc2cc(Cl)c(Oc3cccc(Cl)c3Cl)cc2[nH]1 [Triclabendazole] | 0.91 | active: 0.199 | 2.52
2 | CCCS(=O)(=O)Nc1ccc(F)c(C(=O)c2c[nH]c3ncc(-c4ccc(Cl)cc4)cc23)c1F [Vemurafenib (PLX4032, RG7204)] | 1.35 | inactive: 1.14 | 0.989
3 | CC(C)NCC(O)c1ccc(NS(C)(=O)=O)cc1 (stereo not given) [Sotalol hydrochloride] | 0.916 | inactive: 0.793 | 1.28
4 | C1CNCCN1 [Piperazine] | 1.01 | inactive: 1.05 | 1.13
5 | CC(C(=O)O)c1ccc(-c2ccccc2)c(F)c1 (stereo not given) [Flurbiprofen] | 1.07 | inactive: 1.11 | 0.996
6 | CC1(C)[C@@H](OC(=O)CCC(=O)O)CC[C@]2(C)[C@H]3C(=O)C=C4[C@@H]5C[C@@](C)(C(=O)O)CC[C@]5(C)CC[C@@]4(C)[C@]3(C)CC[C@@H]12 [Carbenoxolone disodium] | 1.02 | active: 0.41 | 1.86
7 | c1ccc(-c2ccc(C(c3ccccc3)n3ccnc3)cc2)cc1 (stereo not given) [Bifonazole] | 1.11 | inactive: 0.882 | 0.955
8 | CCCOC(=O)c1ccc(O)cc1 [Propylparaben] | 1.05 | inactive: 0.825 | 0.891
9 | O=C(O)COCCN1CCN(C(c2ccccc2)c2ccc(Cl)cc2)CC1 (stereo not given) [Cetirizine DiHCl] | 0.984 | inactive: 1.1 | 1.31
10 | C[C@@H](O)[C@H]1C(=O)N2C(C(=O)O)=C(S[C@@H]3CN[C@H](CNS(N)(=O)=O)C3)[C@H](C)[C@H]12 [Doripenem] | 1.33 | inactive: 1.07 | 1.1
11 | CN(C)CCOC(c1ccccc1)c1ccccc1 [Diphenhydramine HCl] | 0.986 | inactive: 0.907 | 1.19
12 | O=c1ccc2cc3ccoc3cc2o1 [Psoralen] | 0.996 | inactive: 0.885 | 1.16
13 | COCC(=O)Nc1c(I)c(C(=O)NCC(O)CO)c(I)c(C(=O)N(C)CC(O)CO)c1I (stereo not given) [Iopromide] | 1.03 | inactive: 0.907 | 1.72
14 | CO[C@@H]1[C@H](N(C)C(=O)c2ccccc2)C[C@H]2O[C@]1(C)n1c3ccccc3c3c4c(c5c6ccccc6n2c5c31)C(=O)NC4 [Midostaurin (PKC412)] | 1 | inactive: 1.29 | 0.481
15 | OC[C@@H](O)[C@@H](O)[C@H](O)[C@H](O)CO [D-Mannitol] | 0.903 | inactive: 0.874 | 1.44
16 | CCC(C)(C)C(=O)O[C@H]1C[C@@H](C)C=C2C=C[C@H](C)[C@H](CC[C@@H]3C[C@@H](O)CC(=O)O3)[C@H]21 [Simvastatin (Zocor)] | – | inactive: 0.578 | 2.35
17 | COc1ccc(CCN(C)CCCC(C#N)(c2ccc(OC)c(OC)c2)C(C)C)cc1OC (stereo not given) [Verapamil HCl] | – | inactive: 0.971 | 0.703
18 | CN1CCN(c2ccc3nc(-c4c(N)c5c(F)cccc5[nH]c4=O)[nH]c3c2)CC1 [Dovitinib (TKI258) Lactate] | 0.00381 | – | –
19 | CCCCCOc1ccc(-c2ccc(-c3ccc(C(=O)N[C@H]4C[C@@H](O)[C@@H](O)NC(=O)[C@@H]5[C@@H](O)[C@@H](C)CN5C(=O)[C@H]([C@@H](C)O)NC(=O)[C@H]([C@H](O)[C@@H](O)c5ccc(O)cc5)NC(=O)[C@@H]5C[C@@H](O)CN5C(=O)[C@H]([C@@H](C)O)NC4=O)cc3)cc2)cc1 [Anidulafungin] | 0.00514 | – | –
20 | CCOc1cc2ncc(C#N)c(Nc3ccc(F)c(Cl)c3)c2cc1NC(=O)/C=C/CN(C)C [Pelitinib (EKB-569)] | 0.00402 | – | –
21 | OC(c1cc(C(F)(F)F)nc2c(C(F)(F)F)cccc12)C1CCCCN1 (stereo not given) [Mefloquine hydrochloride] | 0.00702 | – | –
22 | N=C(NCCCCCCNC(=N)NC(=N)Nc1ccc(Cl)cc1)NC(=N)Nc1ccc(Cl)cc1 [Chlorhexidine HCl] | 0.0162 | – | –
23 | CO[C@H]1C[C@@H]2CC[C@@H](C)[C@@](O)(O2)C(=O)C(=O)N2CCCC[C@H]2C(=O)O[C@H]([C@H](C)C[C@@H]2CC[C@@H](OC(=O)C(C)(CO)CO)[C@H](OC)C2)CC(=O)[C@H](C)/C=C(\C)[C@@H](O)[C@@H](OC)C(=O)[C@H](C)C[C@H](C)/C=C/C=C/C=C/1C [Temsirolimus] | 0.00497 | – | –
